From PubChem BioAssay (NCI)
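Briefly, cells in 96-well plates were exposed to five compound concentrations for 48 h, and endpoints were estimated by linear interpolation. Abbreviation: GI50, concentration required for 50% inhibition of growth. TGI denotes the concentration required for complete inhibition of growth.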

tested on: NCI-H322M lung; test: NCI anticancer screen, dose series, 48 h

Compared with `CN(C)CCCNC(=S)Nc1ccc(/C=C/c2ccc(Cl)cc2)cc1`, `CN(C)c1nc(NCCNS(=O)(=O)c2ccc(C(=O)/C=C/c3ccc(F)cc3)cc2)nc(Nc2ccc(F)cc2)n1` is 2.5-fold higher in GI50: 1.7 µM for the first, 4.24 µM for the second.

`CCCSc1nc(Nc2ccc(S(N)(=O)=O)cc2)c(C#N)c(-c2ccc(Cl)cc2)n1` and `CCN(CC)c1ccnc(CNCCSC(c2ccccc2)(c2ccccc2)c2ccc(C)cc2)c1` are within 1.5-fold of each other in GI50: 4.05 µM for the first, 3.48 µM for the second.

`COc1cc(NC(=O)c2cccc(C3CCc4c(cc(OC)c(OC)c4OC)O3)c2)cc(OC)c1OC` (stereo not given) was tested, and the GI50 was 5.24 µM.

First: CN(C)CCCNC(=S)Nc1ccc(/C=C/c2ccc(Cl)cc2)cc1
Second: CN(C)c1nc(NCCNS(=O)(=O)c2ccc(C(=O)/C=C/c3ccc(F)cc3)cc2)nc(Nc2ccc(F)cc2)n1
The TGI of the first is 5.3-fold lower: 3.38 µM for the first, 17.8 µM for the second.

Compared with `CCCSc1nc(Nc2ccc(S(N)(=O)=O)cc2)c(C#N)c(-c2ccc(Cl)cc2)n1`, `CCN(CC)c1ccnc(CNCCSC(c2ccccc2)(c2ccccc2)c2ccc(C)cc2)c1` is lower in TGI: over 100 µM for the first, 13.1 µM for the second.

Compound `COc1cc(NC(=O)c2cccc(C3CCc4c(cc(OC)c(OC)c4OC)O3)c2)cc(OC)c1OC` (stereo not given) has a TGI of over 100 µM.
